From the supplement of paper PMC9433436
± gives the standard deviation of the averaged measurements. The full ranking holds about 4,100 sequences; the median of “relative kcat/Km (krel) vs genomic leader AAAGAU” is about 1.7, and the highest 2% start at about 6.5. This is a selection; strong and weak results do not stand in their true shares.

Target: T1, E. coli RNase P holoenzyme (M1 P RNA + rnpA protein) (UniProt P0A7Y8)
T1 sequence: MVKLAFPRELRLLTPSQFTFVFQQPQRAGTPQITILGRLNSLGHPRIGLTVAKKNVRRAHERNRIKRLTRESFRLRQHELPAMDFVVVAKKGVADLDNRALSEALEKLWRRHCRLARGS
Assay: relative kcat/Km (krel) vs genomic leader AAAGAU (relative (reference leader = 1)); higher = faster RNase P cleavage
Experimental: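 HTS-Kin: a pool of ptRNA-Met (21C construct) with all 4096 combinations of 5' leader nucleotides N(-6) to N(-1) was processed in vitro by E. coli RNase P (P RNA + rnpA/C5 protein) under multiple-turnover conditions at 37 C, pH 8, 17.5 mM MgCl2. Residual substrate was Illumina-sequenced at several fractions reacted, and relative kcat/Km (krel) was computed by internal competition kinetics, calibrated to the genomic leader (AAAGAU = 1). The listed hexamer is the varied N(-6)..N(-1) leader (DNA letters), and it sits between a fixed 5' stem-loop flank (GCAUGCACGAAAGUGCGUGCUAUGAA) and the mature tRNA-Met starting GGCUACGUAGCUCAGUUGG. Two technical replicates are averaged.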

[1] = fraction of substrate reacted: ~9-10% (9.79% repeat 1, 9.1% repeat 2)
[2] = fraction of substrate reacted: ~13-16% (15.68% repeat 1, 13.17% repeat 2)
[3] = fraction of substrate reacted: ~26-29% (28.66% repeat 1, 26.4% repeat 2)

Sequence	relative kcat/Km [1]	relative kcat/Km [2]	relative kcat/Km [3]
GTCTTA	4.14 ± 1.1	5.78 ± 0.74	7.65 ± 2.9
CACATC	2.93 ± 1	3.64 ± 0.86	5.53 ± 2.1
CCTATA	2.09 ± 0.3	2 ± 0.19	2.67 ± 1.3
TAGTGC	1.81 ± 1.3	1.58 ± 0.22	2.06 ± 0.56
GTCGAG	2.05 ± 1.5	2.123 ± 0.001	4.03 ± 1.6
AATATA	2.2 ± 1.2	1.95 ± 0.23	2.59 ± 1.1
GGGGCT	–	–	1.09 ± 0.83
TCGAAT	2.64 ± 1.3	2.89 ± 0.13	4.3 ± 1.4
GAGGCC	0.984 ± 0.052	0.761 ± 0.51	0.613 ± 0.026
CCGGAA	1.7 ± 0.8	0.925 ± 0.78	1.27 ± 0.073
CTAGGA	1.07 ± 0.76	1.41 ± 0.22	0.67 ± 0.23
GGCTTA	1.58 ± 0.71	1.39 ± 0.29	1.79 ± 0.95
CTAGGT	–	–	1.39 ± 0.93
ACCAAC	–	2.14 ± 1.3	3.18 ± 0.23
TATACT	2.15 ± 0.77	2.03 ± 0.18	3.12 ± 1.6
TAGCTA	1.04 ± 0.16	1.25 ± 0.24	2.18 ± 0.59
TTAGGC	–	–	1.86 ± 1.6
GTGCCC	1.01 ± 0.23	0.583 ± 0.44	1.13 ± 0.088
GTTTCC	2.8 ± 0.93	2.65 ± 0.76	3.04 ± 1.2
CGTGAT	1.39 ± 0.58	1.75 ± 0.53	1.57 ± 0.94
TTTGTA	1.62 ± 0.57	1.66 ± 0.31	2.37 ± 0.96
AGGTCC	–	–	0.52 ± 0.25
CGGAGG	0.395 ± 0.29	–	–
TCTATA	2.09 ± 1.5	2.09 ± 0.89	3.24 ± 1.4
GCATCT	1.43 ± 0.64	1.64 ± 0.52	2.5 ± 0.57
CATTGG	–	0.554 ± 0.12	0.737 ± 0.17
TGTTGG	0.486 ± 0.11	–	0.805 ± 0.36

Sequence	relative kcat/Km [1]	relative kcat/Km [2]	relative kcat/Km [3]
TTATCG	–	0.966 ± 0.31	1.8 ± 0.48
TATTGC	3.74 ± 1.7	4.4 ± 0.4	6.68 ± 3.2
TTAGTG	–	–	0.934 ± 0.09
CGATAG	2.33 ± 1	1.85 ± 0.46	3.17 ± 0.85
CTCAAA	4.31 ± 1.6	4.92 ± 1.4	8.02 ± 3.1
TGCGAT	0.465 ± 0.018	0.782 ± 0.058	1.34 ± 0.61
CCTCTC	1.81 ± 0.67	2.08 ± 0.64	2.5 ± 0.35
TGGTGC	0.735 ± 0.49	0.913 ± 0.26	0.832 ± 0.33
CTCGTG	–	0.177 ± 0.037	1.17 ± 0.98
TGGGCT	–	–	0.65 ± 0.32
GAGATT	1.75 ± 0.29	1.64 ± 0.43	2.6 ± 1.1
GAATGT	0.295 ± 0.29	–	–
ATAGTT	0.831 ± 0.62	1.42 ± 0.72	1.26 ± 0.59
GCGTCT	1.59 ± 0.36	1.55 ± 1.1	2.35 ± 0.78
AAATAA	2.68 ± 1.5	2.92 ± 0.98	3.44 ± 1.2
TGACAG	–	0.756 ± 0.32	2.45 ± 0.62
GGTGAC	0.874 ± 0.18	1.12 ± 0.18	1.82 ± 0.48
GGTCCG	–	0.169 ± 0.08	0.64 ± 0.47
GGGATA	–	0.415 ± 0.34	–
GAGTAC	3.52 ± 1.9	3.52 ± 0.29	5.26 ± 1.7
TTGAAT	2.74 ± 0.89	3.27 ± 0.73	4.03 ± 1.6
ATACGA	2.68 ± 0.89	2.72 ± 0.77	3.71 ± 1.4
AAGCAC	2.14 ± 1.2	1.53 ± 0.4	3.12 ± 1.2
ATTGCG	–	–	0.619 ± 0.17
TTTTTC	2.88 ± 1.2	2.8 ± 0.044	3.84 ± 1.1
TACTAA	5.23 ± 2.7	6.48 ± 0.54	8.92 ± 3.4
